Data on two molecules can be found in US20220098307A1 (WUHAN YZY BIOPHARMA, published 2022).

For one assay, the target named is T1, Monkey CD3 (monkey).
T1 construct: whole, on cells; also called CD3 of monkey CD3 positive T cells
As to the kind of experiment: flow cytometry, monkey T cells.

A further assay concerns the target T2, Human CD3ε (human, UniProt P07766 23-126).
T2 construct: CD3 on T cells isolated from human whole blood
As to the kind of experiment: flow cytometry, human T cells. The source says:
1) Cell preparation: T cells isolated from CD3-positive human whole blood were used for a CD3 end affinity detection of multifunctional antibody molecule; positive tumor cells of corresponding antigen were used for detecting affinity of tumor antigen; for example, CD38-positive MM. 1S cells (purchased from the Cell Resource Center of Shanghai Institutes for Biological Sciences, Chinese Academy of Sciences) or RPMI 8226 cells (purchased from the Cell Resource Center of Shanghai Institutes for Biological Sciences, Chinese Academy of Sciences) were used for CD38 antigen detection, and PD-L1 positive H358 cells (purchased from the Cell Resource Center of Shanghai Institutes for Biological Sciences, Chinese Academy of Sciences) were used for PD-L1 antigen detection, and so on. […]
5) Data analysis: the data was analyzed by a flow analysis software FlowJo 7.6 thereby obtaining an average fluorescence intensity of the specific antibody concentration, plotted by a Graphpad Prism 5 with the antibody concentration (nM) as an abscissa and the average fluorescence intensity as an ordinate; the EC50 value was calculated by the method of One site—Specific binding, and the EC50 value indicated the cell affinity of the antibody to the corresponding target antigen.
Background: In flow cytometry, cells or beads pass a laser one at a time.

Human CD3ε, sequence (P07766 23-126): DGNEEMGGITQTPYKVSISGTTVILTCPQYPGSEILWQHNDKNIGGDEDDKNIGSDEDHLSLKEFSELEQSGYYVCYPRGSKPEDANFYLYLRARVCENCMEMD
Monkey CD3, sequence (Q95LI5 22-198): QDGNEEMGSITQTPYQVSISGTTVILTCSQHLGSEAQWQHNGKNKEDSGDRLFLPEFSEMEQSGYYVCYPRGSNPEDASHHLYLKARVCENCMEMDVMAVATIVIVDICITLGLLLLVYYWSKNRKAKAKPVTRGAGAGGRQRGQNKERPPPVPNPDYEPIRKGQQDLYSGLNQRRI

B1: PDL1-M1-WT (bispecific antibody)
chain: QVQLVESGGGVVQPGRSLRLSCAASGFTFSTYAMNWVRQAPGKGLEWVARIRSKYNNYATYYADSVKDRFTISRDDSKNTLYLQMNSLRAEDTAVYYCARHGNFGNSYVSWFAYWGQGTLVTVSSGGGGSGGGGSGGGGSQTVVTQEPSLTVSPGGTVTLTCRSSTGAVTTSNYANWVQQKPGQAPRGLIGGTNKRAPGVPARFSGSLLGGKAALTLSGVQPEDEAEYYCALWYSNLWVFGGGTKVEIKRGRGS[sequence of human IgG1 Fc with changes omitted]
heavy: not shown
light: not shown
notes: structure 1; PD-L1 x CD3; CH2 WT
Turning to B1, the half-maximal effective concentration (EC50) worked out at 161 nM in the assay with Monkey CD3 and 135 nM with Human CD3ε.

B2: PDL1-M1-NQ-1 (bispecific antibody)
chain: QVQLVESGGGVVQPGRSLRLSCAASGFTFSTYAMNWVRQAPGKGLEWVARIRSKYNNYATYYADSVKDRFTISRDDSKNTLYLQMNSLRAEDTAVYYCARHGNFGNSYVSWFAYWGQGTLVTVSSGGGGSGGGGSGGGGSQTVVTQEPSLTVSPGGTVTLTCRSSTGAVTTSNYANWVQQKPGQAPRGLIGGTNKRAPGVPARFSGSLLGGKAALTLSGVQPEDEAEYYCALWYSNLWVFGGGTKVEIKRGRGS[sequence of human IgG1 Fc with N297Q Y349C T366S L368A Y407V (EU numbers) omitted]
heavy: not shown
light: not shown
notes: structure 1; PD-L1 x CD3; CH2 N297Q
For the molecule B2, the EC50 came to 168 nM with Monkey CD3 and 145 nM with Human CD3ε.

For orientation: EC50 means the concentration that produces a half-maximal response.
